{
  "source": "PubChem BioAssay AID2675",
  "about": "(National Center for Advancing Translational Sciences (NCATS), 2010)",
  "note": "The whole screen tested about 280,000 compounds, of which about 100 (0.036%) were called active. The shares of active, inactive and inconclusive entries below differ from those in the screen. Calls follow the shape of the dose curve; as a rule, active = well fitted inhibition curve with a large enough effect in the signal ratio, with a control signal flat (not every such curve was filed as active); inconclusive = small, poorly fitted or top-dose-only effect, or effect the other way, or a change in a side signal; inactive = no such curve, though single readings can be large or run the other way; the % refers to the signal ratio. Potencies of inconclusive entries are doubtful fits and often do not repeat. A note “side channel” means that the fit belongs to a control or component signal, not to the main read-out. % is scaled to controls: 0 for no effect and ±100 for the full control effect; potency is read from the fitted curve at half-maximal effect; tags tell the direction and shape of the fitted curve or compound fluorescence and quenching.",
  "data": [
    {"target": "Muscleblind-like protein 1 (Homo sapiens) (UniProt Q9NR56)", "sequence (Q9NR56 whole entry, looked up)": "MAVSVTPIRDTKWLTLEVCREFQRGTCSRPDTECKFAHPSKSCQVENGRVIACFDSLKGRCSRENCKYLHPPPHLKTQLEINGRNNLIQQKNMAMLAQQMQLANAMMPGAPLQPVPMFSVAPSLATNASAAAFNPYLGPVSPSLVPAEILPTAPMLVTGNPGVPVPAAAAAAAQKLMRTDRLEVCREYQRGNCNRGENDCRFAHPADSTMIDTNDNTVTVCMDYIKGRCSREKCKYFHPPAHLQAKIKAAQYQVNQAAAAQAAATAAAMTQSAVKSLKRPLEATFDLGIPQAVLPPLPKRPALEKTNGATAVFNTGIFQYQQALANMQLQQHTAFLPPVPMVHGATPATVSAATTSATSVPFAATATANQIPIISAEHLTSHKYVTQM", "experiment": "qHTS Assay for Inhibitors of MBNL1-poly(CUG) RNA binding", "conditions": "TR-FRET MBNL1-His/biotin-(CUG)12 binding, 665/545 ratio; activity change, negative = inhibition: at 57.5 µM (top of the series)", "in_short": "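TR-FRET between His-tagged MBNL1 and biotin-(CUG)12 RNA, detected with Tb anti-His antibody (0.055 ng/ul) and streptavidin-XL665 (5 nM), 60 min at room temperature. Compounds titrated 92 nM to 58 uM; 665/545 nm ratio normalized to buffer and complex controls.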", "values": [
      {"smiles": "CC1(C)Cc2c(sc3nnn(Cc4ccccc4)c(=O)c23)CO1", "Potency": "inconclusive: 14.1 µM [quencher, side channel, single point]"},
      {"smiles": "CCOC(=O)c1cnn2c(C)cc(-c3ccc(F)cc3)nc12", "activity change, negative = inhibition": "inactive: 9.09%"},
      {"smiles": "COc1ccc(OCc2ccc(-c3nc4ccccc4c(=O)n3N)o2)cc1", "Potency": "inconclusive: 11.2 µM [quencher, partial curve]"},
      {"smiles": "CC(=O)N1CCC(=O)Nc2ccc([N+](=O)[O-])cc21", "Potency": "inconclusive: 11.2 µM [quencher, side channel, partial curve]"},
      {"smiles": "Cc1nn2c(-c3ccncc3)ccnc2c1Br", "Potency": "inconclusive: 15.8 µM [quencher, side channel, partial curve]"},
      {"smiles": "O=C(OCc1ccc([N+](=O)[O-])cc1)c1ccc2ccccc2n1", "Potency": "inconclusive: 6.31 µM [quencher, side channel, full curve]"},
      {"smiles": "CCN(CC)CCCN1C=C2C(=O)C(C)(OC(=O)C3CCCC3)C(=O)C(c3ccccc3)=C2C=C1CCCC(=O)OC", "note": "(stereo not drawn)", "Potency": "inconclusive: 17.8 µM [quencher, side channel, partial curve]"},
      {"smiles": "O=c1nccc(N/N=C/c2ccccc2O)[nH]1", "Potency": "inconclusive: 10 µM [quencher, side channel, partial curve]"},
      {"smiles": "Cc1nnc(SCc2cnc(-c3ccc(C(C)C)cc3)s2)n1C", "activity change, negative = inhibition": "inactive: 2.48%"},
      {"smiles": "Cc1ccc(NC(=O)Cn2ccsc2=N)c([N+](=O)[O-])c1", "Potency": "inconclusive: 25.1 µM [quencher, side channel, partial curve]"},
      {"smiles": "COCCNC(=O)C1CCC(CNS(=O)(=O)c2cccc3nsnc23)CC1", "note": "(stereo not drawn)", "Potency": "inconclusive: 14.1 µM [quencher, side channel, partial curve]"},
      {"smiles": "O=[N+]([O-])c1cccc2c1ccc1ncccc12", "Potency": "inconclusive: 7.08 µM [quencher, side channel, partial curve]"},
      {"smiles": "COc1cc([N+](=O)[O-])cc(/C=N/NC(=O)Cn2nccc2C)c1O", "Potency": "inconclusive: 28.2 µM [quencher, side channel, single point]"},
      {"smiles": "O=C1OCCN1C(=O)[C@H]1[C@H](c2ccc(Cl)cc2)C(c2cccc(Cl)c2)=NN1c1ccccc1", "activity change, negative = inhibition": "inactive: 14.5%"},
      {"smiles": "NC(=O)c1cc[n+](Cc2ccc([N+](=O)[O-])cc2)cc1", "Potency": "inconclusive: 14.1 µM [quencher, side channel, partial curve]"},
      {"smiles": "CN[C@H]1CCc2cc(OC)c(OC)c(OC)c2-c2ccc(N(C)CC(OC)OC)c(=O)cc21", "Potency": "inconclusive: 14.1 µM [quencher, side channel, partial curve]"},
      {"smiles": "O=C(CCn1cnc2ccccc21)N=Nc1c(O)[nH]c2ccccc12", "Potency": "inconclusive: 11.2 µM [quencher, partial curve, poor fit]"},
      {"smiles": "N=c1sccn1CC(=O)Nc1ccc([N+](=O)[O-])cc1Cl", "Potency": "inconclusive: 12.6 µM [quencher, side channel, partial curve]"},
      {"smiles": "CC1CC(C)CN(C(=O)Nc2ccc(Br)cc2)C1", "note": "(stereo not drawn)", "activity change, negative = inhibition": "inactive: 4.99%"},
      {"smiles": "COc1cccc(NC(=S)NC(C)c2ccc(OC)c(OC)c2)c1", "note": "(stereo not drawn)", "activity change, negative = inhibition": "inactive: 0.963%"},
      {"smiles": "O=C(CSc1nnc2ccc(-c3ccc(F)cc3)nn12)N1CCCC1", "Potency": "inconclusive: 12.6 µM [quencher, side channel, partial curve]"},
      {"smiles": "O=C(NCCc1ccccc1)c1nc2nc(-c3cccs3)cc(C(F)(F)F)n2n1", "Potency": "inconclusive: 1.41 µM [quencher, side channel, full curve]"},
      {"smiles": "COc1ccc(NC(=O)CSc2nccn2Cc2ccco2)cc1", "activity change, negative = inhibition": "inactive: -15%"},
      {"smiles": "O=[N+]([O-])c1ccc2nc(C3CCCCC3)[nH]c2c1", "Potency": "inconclusive: 15.8 µM [quencher, partial curve]"},
      {"smiles": "CCOc1ccccc1NC(=O)Cn1nnc(C(=O)Nc2ccc(C)cc2)c1N", "activity change, negative = inhibition": "inactive: -4.61%"},
      {"smiles": "CCN(CC)S(=O)(=O)c1ccc(N2CCOCC2)c(NS(=O)(=O)c2ccc(C(C)C)cc2)c1", "activity change, negative = inhibition": "inactive: 1.82%"},
      {"smiles": "Cc1cc(C)n2nc(CNS(=O)(=O)c3cccc([N+](=O)[O-])c3)nc2n1", "Potency": "inconclusive: 11.2 µM [quencher, side channel, partial curve]"},
      {"smiles": "COc1ccc2c(c1)c1nc3ccccc3nc1n2Cc1ccc(OC)c(OC)c1", "activity change, negative = inhibition": "inactive: 1.35%"},
      {"smiles": "COC(=O)C1=C(C)N(Cc2ccccc2)C(=O)N[C@H]1c1ccccc1", "activity change, negative = inhibition": "inactive: -12.7%"},
      {"smiles": "CCOc1ccc(Nc2oc(-c3ccc(Cl)cc3)nc2C#N)cc1", "activity change, negative = inhibition": "inactive: -2.95%"},
      {"smiles": "Cc1cc2c(N=O)c(NO)ccc2[nH]1", "Potency": "inconclusive: 15.8 µM [quencher, side channel, partial curve]"},
      {"smiles": "O=C(c1cc(-c2ccc(Cl)cc2)n(-c2ccc(Cl)cc2)n1)N1CCOCC1", "activity change, negative = inhibition": "inactive: -2.54%"},
      {"smiles": "COc1cccc2cc(C(=O)Oc3ccc(NC(C)=O)cc3)c(=O)oc12", "Potency": "inconclusive: 3.55 µM [quencher, full curve, poor fit]"},
      {"smiles": "CC1(OC(=O)c2ccc(Cl)nc2)C(=O)C=C2C=C3CCCN3C=C2C1=O", "note": "(stereo not drawn)", "Potency": "inconclusive: 17.8 µM [quencher, side channel, partial curve]"},
      {"smiles": "Cc1ccc(CCC(=O)Nc2nccs2)o1", "activity change, negative = inhibition": "inactive: -11.3%"},
      {"smiles": "CC(=O)Nc1cc(OC(C)=O)c2nonc2c1OC(C)=O", "Potency": "inconclusive: 28.2 µM [quencher, side channel, partial curve]"},
      {"smiles": "CCC1(C)Cc2ccccc2-c2nc(NCCO)[nH]c(=O)c21", "note": "(stereo not drawn)", "activity change, negative = inhibition": "inactive: 3.59%"},
      {"smiles": "COc1ccc(CCN2CCC(Nc3nc4ccccc4n3Cc3ccc(F)cc3)CC2)cc1", "activity change, negative = inhibition": "inactive: -11.8%"},
      {"smiles": "O=C1Nc2ccccc2C1=Nc1ccc(Br)cc1", "Potency": "inconclusive: 28.2 µM [quencher, side channel, partial curve]"},
      {"smiles": "CCOC(=O)c1cc2c(ccn2C)n1CC(=O)N(C)C", "Potency": "inconclusive: 17.8 µM [quencher, side channel, partial curve]"},
      {"smiles": "c1ccc(-c2nnc3ccc(N4CCCC4)nn23)cc1", "Potency": "inconclusive: 1 µM [quencher, side channel, partial curve, poor fit]"},
      {"smiles": "CCOc1nc(-c2ccccc2)ccc1-c1noc(-c2ccco2)n1", "activity change, negative = inhibition": "inactive: 43.5%"},
      {"smiles": "COC(=O)COc1ccc(NC(=O)Cn2nc(-c3ccccc3)c3ccccc3c2=O)cc1", "activity change, negative = inhibition": "inactive: -7.58%"},
      {"smiles": "Cc1ccc(F)cc1NC(=O)CCNC(=O)c1ccc([N+](=O)[O-])cc1", "Potency": "inconclusive: 15.8 µM [quencher, side channel, partial curve]"},
      {"smiles": "Cc1cc2c(c(=O)n1Cc1ccccc1)C1O[C@](CCCCN3C(=O)c4ccccc4C3=O)(Cc3cc(C#N)ccc31)O2", "activity change, negative = inhibition": "inactive: 3.85% [at 11.5 µM]"},
      {"smiles": "Cc1ccc(S(=O)(=O)/N=C2/C=C(C3C(=O)CC(C)(C)CC3=O)C(=O)c3ccccc32)cc1", "Potency": "inconclusive: 25.1 µM [quencher, side channel, partial curve]"},
      {"smiles": "O=C(O)c1ccc2c(c1)-c1cc(C(=O)O)ccc1S2(=O)=O", "Potency": "inconclusive: 39.8 µM [quencher, side channel, single point]"},
      {"smiles": "NC(=O)C1CCN(c2c([N+](=O)[O-])cc(C(F)(F)F)cc2[N+](=O)[O-])CC1", "Potency": "inconclusive: 20 µM [quencher, side channel, partial curve]"},
      {"smiles": "CCN(CC)C1CCN(c2nc3nonc3nc2NCCOC)C1", "note": "(stereo not drawn)", "Potency": "inconclusive: 14.1 µM [quencher, side channel, single point]"},
      {"smiles": "CCC(C)NC(=O)CSc1nc2n[nH]c(C)c2c(=N)n1-c1ccc(OC)cc1", "note": "(stereo not drawn)", "Potency": "inconclusive: 35.5 µM [fluorescent, side channel, single point]"},
      {"smiles": "CCOC(=O)c1nn(-c2ccccc2)c(=O)c(C#N)c1C", "Potency": "inconclusive: 12.6 µM [quencher, side channel, partial curve]"},
      {"smiles": "O=C(O)CCCC(=O)Nc1cccc([N+](=O)[O-])c1", "Potency": "inconclusive: 12.6 µM [quencher, side channel, partial curve]"},
      {"smiles": "Cn1cnnc1Sc1ccc(C(F)(F)F)cc1[N+](=O)[O-]", "Potency": "inconclusive: 11.2 µM [quencher, side channel, partial curve]"},
      {"smiles": "CCN(CC)C(=O)c1ccc(-c2nnc(Nc3ccc(C(=O)NC)cc3)c3ccccc23)cc1", "Potency": "inconclusive: 22.4 µM [quencher, side channel, partial curve]"},
      {"smiles": "Cc1ccc(OCCSc2nc(NC(C)C)nc(NC(C)C)n2)cc1", "activity change, negative = inhibition": "inactive: -0.714%"},
      {"smiles": "Cc1ccc(N(CC(=O)Nc2ccc(-c3nc4ccc(C)cc4s3)cc2)S(C)(=O)=O)cc1", "activity change, negative = inhibition": "inactive: 20%"},
      {"smiles": "O=C(Nc1ccc(S(=O)(=O)N2CCc3ccccc32)cc1)c1ccc2c(c1)OCO2", "Potency": "inconclusive: 39.8 µM [quencher, side channel, single point]"},
      {"smiles": "Cc1cccc(-n2c(=S)[nH]c3sc4c(c3c2=O)CCc2ccccc2-4)c1", "activity change, negative = inhibition": "inactive: 53.3%"},
      {"smiles": "N#CC(=C=[N-])c1nc2ccccc2nc1-[n+]1ccccc1", "Potency": "inconclusive: 8.91 µM [quencher, side channel, partial curve]"},
      {"smiles": "CC(=O)C(=Cc1ccc(O)cc1)C(C)=O", "Potency": "inconclusive: 31.6 µM [quencher, side channel, partial curve]"},
      {"smiles": "COC(=O)c1ccc(NC(=O)C23CC4CC(C2)CC(n2cncn2)(C4)C3)cc1", "Potency": "inconclusive: 39.8 µM [quencher, side channel, single point]"},
      {"smiles": "CN(/N=C/c1cc([N+](=O)[O-])ccc1O)c1ccccc1", "Potency": "inconclusive: 5.62 µM [quencher, side channel, single point]"},
      {"smiles": "O=C1Nc2ccc(S(=O)(=O)N3CCOCC3)c3cccc1c23", "Potency": "inconclusive: 15.8 µM [quencher, side channel, partial curve]"}
    ]}
  ]
}
